Source: the supplement of paper PMC4967469

Columns and labels:
Assay in all cases: Viability of human cancer cell lines after 72 h of drug (GDSC screen)
[1] = compound: C#Cc1cccc(Nc2ncnc3cc(OC)c(OCCCCCCC(=O)NO)cc23)c1 [CUDC-101]; details: top dose 5.12 µM; top dose inferred
Method: (§1)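 Human cancer cell lines in 384-well plates, medium with 10% serum, drug for 72 h over a 256-fold dose range (nine 2-fold or five 4-fold steps up to the top dose). Adherent lines were fixed and stained with the nucleic acid dye Syto60, suspension lines read with resazurin; signal relative to control wells, capped at 0 and 100%. One two-parameter sigmoid per drug and line, fitted in a mixed model over all curves with the slope shared within a line.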

[2] = compound: CC(C)(C)c1cc(NC(=O)Nc2ccc(-c3cn4c(n3)sc3cc(OCCN5CCOCC5)ccc34)cc2)no1 [AC220]; details: top dose 1.024 µM; top dose inferred
Method: as §1

[3] = compound: COc1cc(F)c(F)c(Nc2ccc(I)cc2F)c1NS(=O)(=O)C1(C[C@H](O)CO)CC1 [RDEA119]; details: top dose 5 µM, top dose inferred
Method: as §1

[4] = compound: Fc1cc(-c2ccnc(Nc3ccc(-n4cnc(N5CCOCC5)n4)cc3)n2)cc(N2CCOCC2)c1 [JNK-9L]; details: top dose 5.12 µM; top dose inferred
Method: as §1

[5] = compound: NCC(=O)Nc1ccc(-n2nc(C(F)(F)F)cc2-c2ccc3c(ccc4ccccc43)c2)cc1 [OSU-03012]; details: top dose 16 µM; top dose inferred
Method: as §1

[6] = compound: O=c1[nH]cc(F)c(=O)[nH]1 [5-Fluorouracil]; details: top dose 32 µM; top dose inferred
Method: as §1

[7] = compound: OC[C@H](Cc1ccccc1)Nc1nc(Oc2ccc3c(c2)CCC3)nc2c1ncn2Cc1ccc(-c2ccccc2)cc1 [QS11]; details: top dose 10.24 µM
Method: as §1

Cell Line | AUC [1] | IC50 [1] | AUC [2] | IC50 [2] | AUC ([3]; screen: GDSC drug entry 1014) | IC50 ([3]; screen: GDSC drug entry 1014) | AUC ([3]; screen: GDSC drug entry 1526) | IC50 ([3]; screen: GDSC drug entry 1526) | AUC [4] | IC50 [4] | AUC [5] | IC50 [5] | AUC [6] | IC50 [6] | AUC [7] | IC50 [7]
SH-4 (melanoma, adherent) | 0.825 | > 5120 nM | 0.951 | > 1020 nM | 0.39 | 132 nM | 0.5 | 312 nM | 0.543 | 447 nM | 0.744 | 7550 nM | 0.95 | > 32000 nM | 0.875 | > 10200 nM
SHP-77 (small cell lung carcinoma, semi-adherent) | 0.588 | 541 nM | 0.98 | > 1020 nM | 0.992 | > 5000 nM | 0.99 | > 5000 nM | 0.691 | 1020 nM | 0.876 | 12900 nM | 0.835 | 17900 nM | 0.982 | > 10200 nM
SIMA (neuroblastoma, adherent) | 0.692 | 1200 nM | 0.968 | > 1020 nM | 0.769 | 2130 nM | 0.857 | 4930 nM | 0.648 | 870 nM | 0.73 | 4980 nM | 0.666 | 6200 nM | 0.917 | > 10200 nM
SISO (cervix, adherent) | 0.711 | 1220 nM | 0.984 | > 1020 nM | 0.78 | 1960 nM | 0.823 | 2780 nM | 0.558 | 457 nM | 0.775 | 6050 nM | 0.824 | 18000 nM | 0.891 | > 10200 nM
SJRH30 (rhabdomyosarcoma, adherent) | 0.516 | 354 nM | 0.981 | > 1020 nM | 0.939 | > 5000 nM | – | – | 0.583 | 546 nM | 0.725 | 4460 nM | 0.97 | > 32000 nM | 0.936 | > 10200 nM
SJSA-1 (bone, adherent) | 0.746 | 1800 nM | 0.98 | > 1020 nM | 0.403 | 163 nM | 0.765 | 2050 nM | 0.466 | 255 nM | 0.446 | 701 nM | 0.778 | 14700 nM | 0.701 | 2540 nM
SK-CO-1 (large intestine, adherent) | 0.836 | 3110 nM | 0.989 | > 1020 nM | 0.446 | 225 nM | 0.567 | 470 nM | 0.624 | 687 nM | 0.856 | 11800 nM | 0.768 | 11300 nM | 0.987 | > 10200 nM
SK-ES-1 (Ewing sarcoma, semi-adherent) | 0.53 | 388 nM | 0.925 | > 1020 nM | 0.947 | > 5000 nM | 0.982 | > 5000 nM | 0.613 | 671 nM | 0.598 | 1890 nM | 0.779 | 14000 nM | 0.768 | 4100 nM
SK-HEP-1 (liver, adherent) | 0.575 | 504 nM | 0.989 | > 1020 nM | 0.731 | 1350 nM | 0.818 | 2580 nM | 0.496 | 312 nM | 0.683 | 3130 nM | 0.947 | > 32000 nM | 0.803 | 4670 nM
SK-LMS-1 (soft tissue, adherent) | 0.391 | 163 nM | 0.987 | > 1020 nM | 0.696 | 1070 nM | 0.687 | 1020 nM | 0.569 | 488 nM | 0.524 | 1160 nM | 0.735 | 8970 nM | 0.725 | 2690 nM
SK-LU-1 (lung adenocarcinoma, adherent) | 0.692 | 1290 nM | 0.98 | > 1020 nM | 0.881 | > 5000 nM | 0.723 | 1620 nM | 0.641 | 876 nM | 0.642 | 2760 nM | 0.922 | > 32000 nM | 0.9 | > 10200 nM
SK-MEL-1 (melanoma, suspension) | 0.728 | 1280 nM | 0.983 | > 1020 nM | 0.4 | 173 nM | 0.606 | 585 nM | 0.76 | 1580 nM | 0.989 | > 16000 nM | 0.991 | > 32000 nM | 0.993 | > 10200 nM
SK-MEL-3 (melanoma, adherent) | 0.586 | 572 nM | 0.979 | > 1020 nM | 0.56 | 469 nM | 0.724 | 1520 nM | 0.651 | 901 nM | 0.719 | 4680 nM | 0.91 | > 32000 nM | 0.917 | > 10200 nM
SK-MEL-24 (melanoma, adherent) | 0.593 | 607 nM | 0.983 | > 1020 nM | – | – | 0.594 | 597 nM | 0.906 | > 5120 nM | 0.885 | > 16000 nM | 0.89 | > 32000 nM | 0.983 | > 10200 nM
SK-MEL-30 (melanoma, adherent) | 0.545 | 427 nM | 0.985 | > 1020 nM | – | – | 0.456 | 236 nM | 0.49 | 299 nM | 0.58 | 1670 nM | 0.842 | 24300 nM | 0.837 | 7390 nM
SK-MES-1 (lung squamous cell carcinoma, adherent) | 0.478 | 277 nM | 0.983 | > 1020 nM | 0.718 | 1380 nM | 0.737 | 1590 nM | 0.395 | 161 nM | 0.639 | 2510 nM | 0.912 | > 32000 nM | 0.787 | 4880 nM
SK-MM-2 (myeloma, suspension) | 0.604 | 624 nM | 0.935 | > 1020 nM | 0.987 | > 5000 nM | – | – | 0.702 | 1220 nM | 0.811 | 8950 nM | 0.6 | 3810 nM | 0.987 | > 10200 nM
SK-N-AS (neuroblastoma, adherent) | 0.439 | 213 nM | 0.97 | > 1020 nM | 0.607 | 645 nM | – | – | 0.72 | 1500 nM | 0.838 | 13300 nM | 0.908 | > 32000 nM | 0.964 | > 10200 nM

A lower IC50 marks a more sensitive line; where the fit passes the top or lowest dose, that dose stands as a limit. AUC, from the same fit, is the share of area under the viability curve across the 256-fold dose range; values near 1 show little effect. For some assays here: An inferred top dose was derived from the fitted curves, not read from the paper. For some assays here: Drugs with an entry number were screened twice under separate entries, and the two screens often disagree.
